The other results are listed elsewhere or left out.
Each sequence was assayed against T1, OsWOX13 (Oryza sativa, UniProt Q5QMM3 1-267) (assay: protein-binding microarray (RPBM); PBS, 2% BSA, 51.3 ng/ul salmon testes DNA, 50 uM zinc acetate, 200 nM TF, 25 C, 1 h; high values mean tight binding). Settings: protein: recombinant; tags: N-terminal polyhistidine and DsRed monomer fusion (pET32a); label: CyDye5-dUTP incorporated in the synthesized complementary strand; 3' TTTTT single-stranded linker to array surface; dsDNA, one strand shown.
T1 sequence: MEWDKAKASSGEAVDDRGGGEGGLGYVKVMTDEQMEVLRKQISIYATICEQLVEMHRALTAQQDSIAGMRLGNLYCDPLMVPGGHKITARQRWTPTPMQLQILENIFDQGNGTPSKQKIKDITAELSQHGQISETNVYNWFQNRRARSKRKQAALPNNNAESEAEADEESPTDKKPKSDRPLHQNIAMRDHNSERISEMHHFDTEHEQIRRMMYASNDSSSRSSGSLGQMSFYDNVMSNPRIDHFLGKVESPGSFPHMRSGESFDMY
Outline: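 Ni–NTA purification followed expression in E. coli BL21-CodonPlus of transcription factors fused N-terminally to a polyhistidine tag and DsRed. At 200 nM in PBS with 2% BSA, salmon testes DNA and 50 µM zinc acetate, the protein was incubated for 1 h at 25 °C with a custom Agilent array that had been primer-extended with Cy5-dUTP and blocked with 2% BSA. After washing, the array was read on an Axon 4000B scanner. The binding signal is per-feature fluorescence intensity in arbitrary units.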

**Q.** For “CAGATGATTGTAGATGATCAAAGCTTTAATATGCATCTTGCGGAGTCACCTAGTGCAG”, which binding signal is on record?
**A.** 40900 fluorescence intensity (a.u.)

**Q.** “TACACAGATTGCGTGTAAATTGCGAGACGAATCTTTTAAGCGGAGTCACCTAGTGCAG” was tested. Which binding signal did it give?
**A.** 17100 fluorescence intensity (a.u.)

**Q.** “TATTATGTGATTAATTGTATGCATCGTTGGAGTTTCAACTCGGAGTCACCTAGTGCAG” was tested. Which binding signal did it give?
**A.** 16900 fluorescence intensity (a.u.)

**Q.** How did the binding signal turn out when “ACTTATCACTCTAATCACTCATTGCATACACGGTTAATTACGGAGTCACCTAGTGCAG” was run?
**A.** 8280 fluorescence intensity (a.u.)

**Q.** With “TTTTGATGAAATAAACTATGAAAATCCTGTGAAATTCATGCGGAGTCACCTAGTGCAG” as the sequence, how does the binding signal read?
**A.** 7340 fluorescence intensity (a.u.)

**Q.** “CTAAACTATTGAAATAAGTGTAATTTGACTTCTCCAATGGCGGAGTCACCTAGTGCAG” was tested. Which binding signal did it give?
**A.** 7150 fluorescence intensity (a.u.)

**Q.** For “CTTGATGTGATATTGCTGCCTTCCAAATGGGACTTGGATCCGGAGTCACCTAGTGCAG”, which binding signal is on record?
**A.** 10100 fluorescence intensity (a.u.)

**Q.** With “ACCTCTTCCATTTCCATCTTTCTGTTTCTGATTCATTAAACGGAGTCACCTAGTGCAG” as the sequence, how does the binding signal read?
**A.** 4930 fluorescence intensity (a.u.)

**Q.** Which binding signal does the source give for “GCTTAATTAGCCCAATAATAGTAAATAAATTAAAACTCGACGGAGTCACCTAGTGCAG” here?
**A.** 33400 fluorescence intensity (a.u.)

**Q.** For “GCCCGACGGTGACTGGACTCACTTAGCGGTGACTGGTTCGCGGAGTCACCTAGTGCAG”, which binding signal is on record?
**A.** 3610 fluorescence intensity (a.u.)

**Q.** For “GGGATTGCGAGATTGGGAGCGACTTCCGCGCCCGCATATACGGAGTCACCTAGTGCAG”, which binding signal is on record?
**A.** 5600 fluorescence intensity (a.u.)

**Q.** With “ATAAAATTTCAAATCAACCTGATTTGTTTGAATTAATACACGGAGTCACCTAGTGCAG” as the sequence, how does the binding signal read?
**A.** 28800 fluorescence intensity (a.u.)

**Q.** “GTGGTGATTTCATCAATTTTAAGATACGCCGGCTCGGTTTCGGAGTCACCTAGTGCAG” was tested. Which binding signal did it give?
**A.** 15400 fluorescence intensity (a.u.)

**Q.** Which binding signal does the source give for “CTCGCTAATTAGATGGATAAACTTCGTTTATCGCGTCCCACGGAGTCACCTAGTGCAG” here?
**A.** 42400 fluorescence intensity (a.u.)

**Q.** How did the binding signal turn out when “CTGATTATCTGAATATCTGGATCCCCGTCACTCACATGCACGGAGTCACCTAGTGCAG” was run?
**A.** 16100 fluorescence intensity (a.u.)

**Q.** For “GATGGTGTAATGACTGATGTGATCCTTTTGTCCTTGTCCACGGAGTCACCTAGTGCAG”, which binding signal is on record?
**A.** 4430 fluorescence intensity (a.u.)

**Q.** “ATTTGACAAGACTCCAATTAAATTTTATATGCGGGTATTACGGAGTCACCTAGTGCAG” was tested. Which binding signal did it give?
**A.** 13900 fluorescence intensity (a.u.)

**Q.** “TGTCTACTAGGTGTCATTGTCAATCTGTCATTGCACAACTCGGAGTCACCTAGTGCAG” was tested. Which binding signal did it give?
**A.** 3400 fluorescence intensity (a.u.)

**Q.** For “TAGAAATAATTAGGATGATATAACTTATCGATAGAAGAGACGGAGTCACCTAGTGCAG”, which binding signal is on record?
**A.** 8980 fluorescence intensity (a.u.)

**Q.** With “GGCGTTAATCACGTGATGGGCATGGATAGTGATTTAGATTCGGAGTCACCTAGTGCAG” as the sequence, how does the binding signal read?
**A.** 13900 fluorescence intensity (a.u.)

**Q.** With “AACCTTCTCGAACTTAATTTAATTGATGGGGCCTTTGAATCGGAGTCACCTAGTGCAG” as the sequence, how does the binding signal read?
**A.** 11000 fluorescence intensity (a.u.)

**Q.** Which binding signal does the source give for “ATCTTATTTTAGATTGCTGCATTTTAATACGGACGAAGTACGGAGTCACCTAGTGCAG” here?
**A.** 9140 fluorescence intensity (a.u.)

**Q.** How did the binding signal turn out when “TTGTTAATTATGAGTTCATATCTCGCAATTTCAAGCAAATCGGAGTCACCTAGTGCAG” was run?
**A.** 14200 fluorescence intensity (a.u.)

**Q.** With “CCTAATGATAATTAAGAGGAGTGATGATGGGCATGCCATTCGGAGTCACCTAGTGCAG” as the sequence, how does the binding signal read?
**A.** 27000 fluorescence intensity (a.u.)

**Q.** “TATGCAGAATTAATTTATTTAATCACCTCTATTGACTTGACGGAGTCACCTAGTGCAG” was tested. Which binding signal did it give?
**A.** 10700 fluorescence intensity (a.u.)

**Q.** With “TGCTTGACTGTGAGTACTGTTTGGGAGGGAGAGTGGTAAACGGAGTCACCTAGTGCAG” as the sequence, how does the binding signal read?
**A.** 6190 fluorescence intensity (a.u.)

**Q.** For “GTACTTATATATATATAGATAGATTGAAATAGAACTAAACCGGAGTCACCTAGTGCAG”, which binding signal is on record?
**A.** 7280 fluorescence intensity (a.u.)

**Q.** Which binding signal does the source give for “CCTAATTGACAAATGATTTCACCACGTCCCTTTCCATTTTCGGAGTCACCTAGTGCAG” here?
**A.** 34200 fluorescence intensity (a.u.)

**Q.** For “GGTGCCGGTGATAGCGATAATTGACTAATTTTCTGGTTACCGGAGTCACCTAGTGCAG”, which binding signal is on record?
**A.** 32300 fluorescence intensity (a.u.)

**Q.** For “TTCTCCAATCAATCCAATCCAATCCTCGTGTAGGCCACCACGGAGTCACCTAGTGCAG”, which binding signal is on record?
**A.** 40800 fluorescence intensity (a.u.)

**Q.** With “TCTTAATCAATCACAATATCTCTCTATTTAATTCTACCTACGGAGTCACCTAGTGCAG” as the sequence, how does the binding signal read?
**A.** 21300 fluorescence intensity (a.u.)

**Q.** How did the binding signal turn out when “CTGGATTGCTTTATCTCCCAGTGACTAACCATTCCAAATTCGGAGTCACCTAGTGCAG” was run?
**A.** 7210 fluorescence intensity (a.u.)

**Q.** For “AAAATAAAGATTGAGTGTCACAAAACTACAGGTTTGGTATCGGAGTCACCTAGTGCAG”, which binding signal is on record?
**A.** 6490 fluorescence intensity (a.u.)

**Q.** “GTATTAAACATACATTAATTACAAAATCCATTTCAGAAGCCGGAGTCACCTAGTGCAG” was tested. Which binding signal did it give?
**A.** 21200 fluorescence intensity (a.u.)

**Q.** Which binding signal does the source give for “AGTTTATGATAATTTAAATTTATATAGTATGTAGAATGGTCGGAGTCACCTAGTGCAG” here?
**A.** 14400 fluorescence intensity (a.u.)

**Q.** How did the binding signal turn out when “CATTGATTTGATGCGTCTGGTAGTGTGGTGGTGTTCTTGACGGAGTCACCTAGTGCAG” was run?
**A.** 41700 fluorescence intensity (a.u.)

**Q.** Which binding signal does the source give for “GATGATGTAAACCTGATCAGATTTGCTCGAGTTGGTTTGACGGAGTCACCTAGTGCAG” here?
**A.** 7280 fluorescence intensity (a.u.)

**Q.** With “CTAAGCTGTGATTTCTTTTCTTTATGTCACCACCTCCAAACGGAGTCACCTAGTGCAG” as the sequence, how does the binding signal read?
**A.** 3460 fluorescence intensity (a.u.)

**Q.** For “ACACGGTTAATTAAAGCTCCACTGTCCGTATAGTGCATCACGGAGTCACCTAGTGCAG”, which binding signal is on record?
**A.** 7610 fluorescence intensity (a.u.)

**Q.** “TCCAAAACATCAATAATTATGAAACCGGTGGGAGTACTCACGGAGTCACCTAGTGCAG” was tested. Which binding signal did it give?
**A.** 7200 fluorescence intensity (a.u.)

**Q.** Which binding signal does the source give for “ATTAATTAATTATTATAAATTTAGAAAATGCGTTCATTTGCGGAGTCACCTAGTGCAG” here?
**A.** 35900 fluorescence intensity (a.u.)

**Q.** “TATTATATGAATTGGCTATTAAATTAGTTATAAATGAATTCGGAGTCACCTAGTGCAG” was tested. Which binding signal did it give?
**A.** 3710 fluorescence intensity (a.u.)

— publication PMC7819943, “Rice protein-binding microarrays: a tool to detect cis-acting elements near promoter regions in rice”
